Laboratory results from PMC10907643.
Results are given in words; binding and its absence hold for the method and conditions named. In cells and extracts the contact can be indirect. Some results given as binding are weak or reduced against the parent protein; the word gives no strength.

Target: T1, AGR2 (endogenous, mouse colon) (mouse (endogenous in colon tissue)) (UniProt O88312)
T1 sequence: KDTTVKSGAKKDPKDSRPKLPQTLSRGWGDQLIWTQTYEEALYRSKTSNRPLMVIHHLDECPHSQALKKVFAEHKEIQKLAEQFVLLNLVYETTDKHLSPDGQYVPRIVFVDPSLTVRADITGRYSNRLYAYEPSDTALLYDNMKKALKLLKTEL
Assay: co-IP; anti-AGR2 (clone 6C5) on Protein G Dynabeads, lysates of digested mouse colon in E1A buffer, 2 h; blot for IRE1β; Agr2-deficient mice as negative control

binding: binds
B1: IRE1β (endogenous, mouse colon) (protein, UniProt Q9Z2E3 34-911)
chain: VRPESLLFVSTLDGSLHALNKQTGDLKWTVKDDPIIQGPMYVTEMAFLSDPADGSLYVLGTQKQQGLMKLPFTIPELVHASPCRSSDGVFYTGRKQDAWFVVDPESGETQMTLTTEGLSTPQLFIGRTQYTVSMHDLRTPALRWNTTYRRYSAPLLNGSPGKYMSHLTSCGMGLLLTVDPGSGIVLWTQDLGVPVTGIYTWHQDGLHQLPHLTLARDTLHFLVLRWGHIRLPASSYQDTATQFSSLDTQLLMTLYVGKEEAGFYVSKALVHAGVALVPRGLTLAPMDGPTTDEVTLQVSGEREGSPSTAVRYPSGSVALPSQWLLIGYHEPPPVLHTTMLRVHPIPGKVSAETRASEDLHAPPVFFELLNLRREDPELHPEEKASDSYPGLGSQDLLAATFTAILLGAWVLYLMRQQQQSPSAPAGPPDLSQDAQGQLSRDILQDQRRFQSPSEPAQPPHDPEAGQPTVVGKISFNPKDVLGRGAGGTFVFRGQFEGRAVAVKRLLRECFGLVRREVQLLQESDRHPNVLRYFCTEHGPQFHYIALELCQASLQEYVESPDLDRWGLEPTTVLQQMMSGLAHLHSLHIVHRDLKPANILMAGPDSQGQGRVVISDFGLCKKLPVGRCSFSLHSGIPGTEGWMAPELLQLPPDSPTSAVDIFSAGCVFYYVLSGGSHPFGESLYRQANILSGDPCLAQLQEETHDKVVALDLVRAMLSLLPQDRPSAGWVLAHPLFWSRAKELQFFQDVSDWLEKEPDQGPLVSALEAGSYKVVREDWHKHISAPLQADLKRFRSYKGTSVRDLLRAMRNKKHHYRELPAEVRQTLGQLPAGFIQYFTQRFPRLLLHTHRAMRTCASESLFLPYYPPALEARRPDATKS
